Results as given in the supplement of paper PMC3334620.
The full ranking holds about 33,000 sequences; the median of “E-score (-0.5 to 0.5)” is about -0.012, and the highest 2% start at about 0.27. This is one part of the list.

target: T1, Vhr1 (UniProt P40522); experiment: PBM E-score (8-mer binding enrichment) (E-score (-0.5 to 0.5)); higher = stronger / more preferred TF binding; most listed sequences are background and not binding sites; conditions: protein concentration: 200 nM; construct: GST-full length
T1 sequence: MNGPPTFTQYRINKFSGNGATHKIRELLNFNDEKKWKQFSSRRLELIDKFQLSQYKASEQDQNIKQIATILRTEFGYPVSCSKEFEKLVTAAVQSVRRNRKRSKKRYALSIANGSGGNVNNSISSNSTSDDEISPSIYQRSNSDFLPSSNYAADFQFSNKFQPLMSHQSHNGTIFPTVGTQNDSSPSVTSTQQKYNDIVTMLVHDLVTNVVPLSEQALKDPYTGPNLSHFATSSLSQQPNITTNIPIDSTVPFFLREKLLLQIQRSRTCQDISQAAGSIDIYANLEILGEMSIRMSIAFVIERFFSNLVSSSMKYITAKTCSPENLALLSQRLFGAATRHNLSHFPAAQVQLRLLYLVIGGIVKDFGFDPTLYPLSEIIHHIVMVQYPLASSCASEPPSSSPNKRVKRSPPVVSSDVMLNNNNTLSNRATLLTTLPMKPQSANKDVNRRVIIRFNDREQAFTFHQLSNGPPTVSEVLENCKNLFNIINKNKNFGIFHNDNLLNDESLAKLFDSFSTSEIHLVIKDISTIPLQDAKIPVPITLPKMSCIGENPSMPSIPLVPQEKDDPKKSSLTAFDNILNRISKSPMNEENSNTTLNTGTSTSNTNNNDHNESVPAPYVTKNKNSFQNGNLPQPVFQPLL
Procedure: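 Universal 'all 10-mer' protein binding microarrays (Agilent AMADID 015681) probed with GST-tagged S. cerevisiae TFs (full-length or DBD) made by in vitro transcription/translation (PURExpress), about 100-200 nM. Bound TF was detected with fluorescent anti-GST. Each ungapped 8-mer (which stands for itself and its reverse complement) is scored by the PBM enrichment score (E-score), a modified Wilcoxon-Mann-Whitney statistic from -0.5 to +0.5, computed with the Universal PBM Analysis Suite. Scale: above 0.35 generally sequence-specific binding.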

Sequence	PBM E-score
AGCGGACG	-0.0316
CGCTGAAA	-0.108
AGCTATAT	0.107
TCAATTCA	-0.0518
GCCTCCTA	-0.209
GGGCGAGA	-0.052
CCCTTCCC	0.161
GAGCGCCC	0.126
CACAATTC	0.0896
TACATAAA	-0.0692
GAGAATGC	0.0664
CCCCAAGC	0.239
CGGCCGAG	0.11
ACAACGCC	-0.0778
TCAATAGA	-0.025
CCTAGGGA	0.0204
ATGGCCTC	0.00916
AACCGAGC	-0.00629
AGCGAGTC	0.275
AGTGCAAG	-0.0995
GCCCACGA	-0.173
GTGCGATA	0.0799
ACTATGTA	0.207
ATGACTTG	0.268
ACTCCAAT	0.0976

Sequence	PBM E-score
GCGTGAAA	-0.214
TCCTCCAA	-0.019
CTGAACTC	-0.0868
ATGACTGC	0.41
GAGTGTGC	0.0366
AATACCCG	0.107
CTGGCAAA	-0.227
ATCTTCGA	-0.0322
TGGTGACA	0.0991
CCAGACAG	-0.116
ATCGCGAT	0.204
ATCTCTGG	-0.0853
CGCTGGTC	-0.0561
AGGTGTAA	-0.0503
AAGTACCC	-0.206
CATATATC	0.142
ATCTGGCG	0.123
ACTCGTAA	0.0568
CCTGTTAG	-0.102
GAGGCGGA	-0.168
CCAACAGC	0.0131
CGTGATTC	0.326
ACGGGGGC	-0.212
TCGCCACA	0.202
CATAGTAA	0.212

Sequence	PBM E-score
CCTTTGAA	-0.1
GGGGCCGA	-0.151
CTGTGGCA	-0.099
TAGATCCA	-0.0595
AAGGTACT	-0.0263
ACTATCAC	0.0289
CAAAGTGC	-0.0139
GATCCTAC	0.113
ACTCCCCT	0.153
CGCCACAA	0.0246
ATCTAACA	-0.0319
ATGGAGCG	0.119
CGGCGGTA	0.109
GGGAAGGA	-0.14
GTTATAGA	-0.173
AAAAAATG	-0.189
CCAACGGC	-0.287
AACTCACG	0.109
TAGTGAGA	0.118
CCTATACG	-0.055
TAGTTCAA	-0.0142
AGTGGTCG	0.2
GGAGTCCC	0.227
GACCTTAC	-0.112
CGTGAATA	0.119

Sequence	PBM E-score
CGGATTAG	0.0373
TCCGCAAA	-0.105
GCGGCTGA	0.0414
AACGTCCA	-0.223
AAGATCTA	-0.199
CCCTATAC	0.0462
CCCGGTGC	-0.0384
ATTGGCGG	-0.0369
ACCCCAAG	-0.0964
ATCGGACA	-0.118
CGGAAGCA	-0.0998
AGCCCAAT	-0.133
CCTTTGTA	-0.273
CCACTGGG	-0.121
AGGCAATC	-0.102
ACTTTTCA	-0.269
GTCGGCAC	-0.115
ACGAATGC	-0.0487
AAGTACGT	-0.077
CGGGATCA	0.0945
ATCGCTTG	0.071
TATGGAAA	-0.00154
CGGACATC	-0.138
CGCCGAAA	0.123
CGCGGACC	0.102

Sequence	PBM E-score
AGTGGATC	0.172
ATATGGCG	0.0173
GGTCAAGA	0.0067
CAGGGTAA	0.163
CCTACTAG	0.0535
CAGGATCA	0.0935
AGCACACG	-0.0162
AAAATAAC	-0.127
CACGTGAA	-0.047
GGCTACTA	0.179
CTCGATGC	-0.00057
GCCGAGAC	-0.0553
CACTCCGC	0.144
GCACTCCA	-0.248
ACTTTCAG	-0.166
CATATCTC	0.0164
ACGATCAT	0.089
GGTACGAC	0.00399
CATCCCAA	0.0716
CAGACAGA	-0.0253
GCTGGGGA	-0.154
CTCGCACA	0.0558
CTGACAGC	0.0155
GCATTACA	0.0758
CAAAAACC	-0.115

Sequence	PBM E-score
AACTAAGT	-0.025
CCCTGCAG	0.028
CCTTCACG	-0.159
GGCCAAGA	-0.103
CGTGAGAG	-0.321
CCAAAGTC	0.0864
ATGTGTCC	0.157
GGCTGGAA	-0.035
CGTTTTGC	-0.099
ACCTACAT	0.0188
CGCAAGAG	0.0352
GGGGCTAC	-0.0091
ACGGTACT	0.00055
GGATAGAC	-0.179
AACATGAT	0.229
CACGAACC	-0.0392
AAGCGATC	-0.0527
TAATCCTA	-0.0628
AAACACAC	0.192
AAAACCCG	-0.17
CTATTCAC	0.0789
AAGAGTGT	-0.167
CAAGAAGA	0.0592
GGGTTAGA	-0.04
CATCAACG	0.131

Sequence	PBM E-score
ACATCACT	0.144
GATAGGAC	0.0574
TGGTACCA	0.0645
ACGACATG	0.107
CAGCAATC	0.0295
CTTAGAAA	-0.324
CTGCTCGC	-0.0394
CTGGATAC	0.0905
CGCGCGGA	0.13
CTCGCCTC	-0.165
AACCTCGG	-0.0382
GGTTAGAC	-0.00016
GGGCGAAA	-0.052
ATTCTGCC	0.022
CAGAGACC	0.0328
AATAGAAG	-0.116
TAGCAGGA	-0.0249
AAGTTCTG	-0.168
ACGCGTTA	-0.156
ACGAGTTG	0.0198
GTTTATCA	0.167
AGAGACTG	0.0515
